This passage reports IC50 results from patent publication US8633212B2, “Inhibitors of beta-secretase” (Vitae Pharmaceuticals, Inc., priority 2009, dated 2014).

pIC50: −log10 of the molar value.

The assay has as its target ectodomain of BACE (aa 1-454) fused to a myc-his tag, secreted from HEK293/BACEect. cells (Homo sapiens (Human), UniProt P56817). In words: biochemical.
As to `COC1CCC2(CC1)Cc1ccc(Br)cc1C21N=C(N)N(C2CCOCC2)C1=O` (stereo not shown) [Compound 432], the pIC50 (usually the IC50 on a negative log10 scale, so that one unit is a factor of ten) was 7.09. With `CCCCN1C(=O)C2(N=C1N)c1cc(C#CC3CC3)ccc1CC21CCC(OC)CC1` (stereo not shown) [Compound 323] the figure was 8.15; with `CC(C)N1C(=O)C2(N=C1N)c1cc(C#N)ccc1OC21CCc2ccccc2CC1` (stereo not shown) [Compound 428], 6.53; with `COC1CCC2(CC1)Cc1ccc(Br)cc1C21N=C(N)N(C2CCN(C)CC2)C1=O` (stereo not shown) [Compound 434], 6.27. Under `COc1cccc(CN2C(=O)C3(N=C2N)c2cc(CCC4CC4)ccc2CC32CCC(OC)CC2)c1` (stereo not shown) [Compound 356] stands 6.72.

`CN1C(=O)C2(N=C1N)c1cc(C#CC3CC3)ccc1OC21CCc2ccccc2CC1` (stereo not shown) [Compound 421]: the pIC50 was 7.83.

`COC1CCC2(CC1)Cc1ccc(-c3cccc(S(C)(=O)=O)c3)cc1C21N=C(N)N(C)C1=O` (stereo not shown) [Compound 206] showed a pIC50 of 7.39. Under `COCCN1C(=O)C2(N=C1N)c1cc(CCC3CC3)ccc1CC21CCC(OC)CC1` (stereo not shown) [Compound 369] stands 7.88; under `CN1C(=O)C2(N=C1N)c1cc(C#N)ccc1OC21CCc2ccccc2CC1` (stereo not shown) [Compound 424], 7.27. Under `COC1CCC2(CC1)Cc1ccc(C#CC3CC3)cc1C21N=C(N)N(CC2CCN(C)C2)C1=O` (stereo not shown) [Compound 330] stands 7.62. `COC1CCC2(CC1)Cc1ccc(CCC3CC3)cc1C21N=C(N)N(CC2CCCO2)C1=O` (stereo not shown) [Compound 348]: the pIC50 is 7.90.

`CN1C(=O)C2(N=C1N)c1cc(OCC3CC3)ccc1OC21CCc2ccccc2CC1` (stereo not shown) [Compound 425]: the pIC50 was 8.39.

Take `COC1CCC2(CC1)Cc1ccc(CCC3CC3)cc1C21N=C(N)N(Cc2ccc(F)cc2)C1=O` (stereo not shown) [Compound 359]: the pIC50 was 7.85. In the case of `CN1C(=O)C2(N=C1N)c1cc(OCC3CC3)ccc1CC21CCc2ccccc2CC1` (stereo not shown) [Compound 408], the pIC50 was 8.01.

Molecule `COC1CCC2(CC1)Cc1ccc(CCC3CC3)cc1C21N=C(N)N(CCc2ccccc2)C1=O` (stereo not shown) [Compound 363] showed a negative logarithm of the IC50 (pIC50) of 7.76. With `CCCN1C(=O)C2(N=C1N)c1cc(C#CC3CC3)ccc1CC21CCC(OC)CC1` (stereo not shown) [Compound 322] the figure was 8.28.

For `COC1CCC2(CC1)Cc1ccc(CCC3CC3)cc1C21N=C(N)N(CC2CCOC2)C1=O` (stereo not shown) [Compound 370], the pIC50 was 8.46.

Turning to `COC1CCC2(CC1)Cc1ccc(Br)cc1C21CCSC(N)=N1` (stereo not shown) [Compound 436], the pIC50 was 5.63. `COC1CCC2(CC1)Cc1ccc(C#CC3CC3)cc1C21CCSC(N)=N1` (stereo not shown) [Compound 438] had a pIC50 of 7.10.
